Holding throughout (test): protein-binding microarray (PBM)
Holding throughout (conditions): PBM: ~300 nM protein, 6 mM HEPES pH 7.8, 80 mM KCl, 0.5 mM EDTA, 0.5 mM EGTA, 6% glycerol, 35 ng/ul poly-dIdC, 1% milk, 1 h, room temperature; Ap Aiptasia and Nv Nematostella (sea anemones) / Co Capsaspora / Aq Amphimedon (sponge) / Dm Drosophila / Hu human; RHD is the Rel homology domain; high values mean tight binding; most listed sequences are background and not binding sites; double strand, one strand shown

The target in one experiment is T1, GST-Ap-NF-kB RHD (UniProt A0A913YAJ5).
T1 sequence: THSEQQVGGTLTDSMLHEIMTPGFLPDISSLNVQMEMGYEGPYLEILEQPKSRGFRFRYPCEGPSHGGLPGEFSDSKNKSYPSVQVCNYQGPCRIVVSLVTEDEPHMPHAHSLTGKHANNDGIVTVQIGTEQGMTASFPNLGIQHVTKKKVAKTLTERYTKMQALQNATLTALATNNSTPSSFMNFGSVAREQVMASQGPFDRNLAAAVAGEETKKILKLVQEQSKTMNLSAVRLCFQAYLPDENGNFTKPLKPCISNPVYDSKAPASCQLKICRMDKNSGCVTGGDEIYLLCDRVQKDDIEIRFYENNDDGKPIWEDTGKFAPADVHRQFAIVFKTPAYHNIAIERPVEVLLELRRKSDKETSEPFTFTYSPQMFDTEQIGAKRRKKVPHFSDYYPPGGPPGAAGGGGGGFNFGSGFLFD

The target in experiment [1] is T2, GST-Nv-NF-kB (Cys allele) (UniProt E5G601).
T2 sequence: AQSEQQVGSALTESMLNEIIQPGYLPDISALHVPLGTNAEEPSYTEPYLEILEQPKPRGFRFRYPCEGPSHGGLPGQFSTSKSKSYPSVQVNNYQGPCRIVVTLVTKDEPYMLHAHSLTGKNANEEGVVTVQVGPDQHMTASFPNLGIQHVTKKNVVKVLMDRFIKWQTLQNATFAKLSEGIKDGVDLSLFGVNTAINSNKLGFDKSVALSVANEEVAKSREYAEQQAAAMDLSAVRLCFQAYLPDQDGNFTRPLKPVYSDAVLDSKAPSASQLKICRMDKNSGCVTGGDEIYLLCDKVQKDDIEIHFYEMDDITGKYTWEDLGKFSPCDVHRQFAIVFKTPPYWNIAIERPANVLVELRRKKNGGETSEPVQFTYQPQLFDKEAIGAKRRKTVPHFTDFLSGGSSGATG

A further experiment concerns the target T3, GST-Co-NF-kB (UniProt F1ARL5).
T3 sequence: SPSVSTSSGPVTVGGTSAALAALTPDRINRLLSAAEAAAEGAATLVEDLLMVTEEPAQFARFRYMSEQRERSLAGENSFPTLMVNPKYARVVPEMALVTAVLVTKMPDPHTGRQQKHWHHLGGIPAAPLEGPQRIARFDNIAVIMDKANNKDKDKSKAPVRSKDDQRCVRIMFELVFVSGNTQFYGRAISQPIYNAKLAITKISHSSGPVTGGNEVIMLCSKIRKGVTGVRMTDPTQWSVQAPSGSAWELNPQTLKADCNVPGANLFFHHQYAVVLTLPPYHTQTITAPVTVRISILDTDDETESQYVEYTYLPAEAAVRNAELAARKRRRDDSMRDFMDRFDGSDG

Another experiment has as its target T4, GST-Dm-Relish (UniProt Q94527).
T4 sequence: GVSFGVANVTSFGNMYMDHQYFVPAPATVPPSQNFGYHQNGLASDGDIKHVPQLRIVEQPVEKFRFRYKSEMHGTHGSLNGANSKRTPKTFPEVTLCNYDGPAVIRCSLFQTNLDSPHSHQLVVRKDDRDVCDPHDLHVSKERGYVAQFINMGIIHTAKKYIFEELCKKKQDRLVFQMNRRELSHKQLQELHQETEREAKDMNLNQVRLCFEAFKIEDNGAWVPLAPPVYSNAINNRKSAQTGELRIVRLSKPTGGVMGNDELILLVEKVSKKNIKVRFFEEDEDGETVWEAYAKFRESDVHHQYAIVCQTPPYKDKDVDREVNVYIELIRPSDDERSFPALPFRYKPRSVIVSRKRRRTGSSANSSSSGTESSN

A further experiment has as its target T5, GST-Aq-NF-kB (UniProt A9Y5G7).
T5 sequence: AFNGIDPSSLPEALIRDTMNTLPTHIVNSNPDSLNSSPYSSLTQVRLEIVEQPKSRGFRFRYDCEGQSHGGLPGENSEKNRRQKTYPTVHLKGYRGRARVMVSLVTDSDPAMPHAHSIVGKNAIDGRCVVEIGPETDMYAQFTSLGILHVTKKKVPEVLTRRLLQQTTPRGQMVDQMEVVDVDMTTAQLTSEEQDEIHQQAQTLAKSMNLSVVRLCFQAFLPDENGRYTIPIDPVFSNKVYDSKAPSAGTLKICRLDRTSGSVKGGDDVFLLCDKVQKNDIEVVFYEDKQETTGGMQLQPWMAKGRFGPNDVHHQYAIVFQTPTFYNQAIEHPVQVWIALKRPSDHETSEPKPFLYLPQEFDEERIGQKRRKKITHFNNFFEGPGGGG

This is a selection; strong and weak results do not stand in their true shares. The list includes weakly bound sequences.

On to “CCGATTAACATCAGACCATTTCGTGATGTTAATCGGGTCTTGATTCGCTTGACGCTGCTG”, for which the binding signal was 0.445 z-score with GST-Ap-NF-kB RHD; -0.127 z-score in experiment [1]; 0.523 z-score in the experiment with GST-Co-NF-kB; -0.299 z-score with GST-Dm-Relish; 0.0353 z-score with GST-Aq-NF-kB.

For “CCGATTAACATCAGGAAAAGCCATGATGTTAATCGGGTCTTGATTCGCTTGACGCTGCTG”, the binding signal is 0.196 z-score with GST-Ap-NF-kB RHD; -0.0861 z-score in experiment [1]; 0.305 z-score in the experiment with GST-Co-NF-kB; 0.177 z-score with GST-Dm-Relish; 0.917 z-score in the experiment with GST-Aq-NF-kB.

For the sequence “CCGATTAACATCACAATGGAGAGTGATGTTAATCGGGTCTTGATTCGCTTGACGCTGCTG”, the binding signal with GST-Ap-NF-kB RHD was -0.718 z-score; in experiment [1], 0.0811 z-score; with GST-Co-NF-kB it was 0.706 z-score; in the experiment with GST-Dm-Relish, 0.343 z-score; with GST-Aq-NF-kB, -0.497 z-score.

On to “CCGATTAACATCAATCCCGAGCATGATGTTAATCGGGTCTTGATTCGCTTGACGCTGCTG”, for which the binding signal with GST-Ap-NF-kB RHD was found to be 0.416 z-score; in experiment [1], 0.303 z-score; in the experiment with GST-Co-NF-kB, 0.878 z-score; with GST-Dm-Relish, 0.231 z-score; with GST-Aq-NF-kB, 0.674 z-score.

Consider “CCGATTAACATCAAAGTCACTGTTGATGTTAATCGGGTCTTGATTCGCTTGACGCTGCTG”, for which the binding signal was -0.511 z-score with GST-Ap-NF-kB RHD; -0.702 z-score in experiment [1]; -0.359 z-score with GST-Co-NF-kB; 0.981 z-score in the experiment with GST-Dm-Relish; -0.366 z-score with GST-Aq-NF-kB.

“CCGATTAACATCAGTGTCATCCCTGATGTTAATCGGGTCTTGATTCGCTTGACGCTGCTG”: the binding signal with GST-Ap-NF-kB RHD is 0.826 z-score; in experiment [1], -0.511 z-score; with GST-Co-NF-kB it was 0.227 z-score; with GST-Dm-Relish, -0.651 z-score; with GST-Aq-NF-kB it was 0.203 z-score.

Consider “CCGATTAACATCACAGCGAATCCTGATGTTAATCGGGTCTTGATTCGCTTGACGCTGCTG”, for which the binding signal is -0.363 z-score with GST-Ap-NF-kB RHD; -0.264 z-score in experiment [1]; -0.704 z-score in the experiment with GST-Co-NF-kB; -0.0535 z-score with GST-Dm-Relish; -0.437 z-score with GST-Aq-NF-kB.

Regarding “CCGATTAACATCAAGAAAAGCTATGATGTTAATCGGGTCTTGATTCGCTTGACGCTGCTG”, the binding signal with GST-Ap-NF-kB RHD is -0.654 z-score; in experiment [1], 0.151 z-score; with GST-Co-NF-kB it was 0.303 z-score; with GST-Dm-Relish, -0.513 z-score; in the experiment with GST-Aq-NF-kB, -0.404 z-score.

With “CCGATTAACATCAAGGCGTATCGTGATGTTAATCGGGTCTTGATTCGCTTGACGCTGCTG”, the binding signal in the experiment with GST-Ap-NF-kB RHD is -0.203 z-score; in experiment [1] it was -0.164 z-score; with GST-Co-NF-kB, 0.00464 z-score; with GST-Dm-Relish, -0.399 z-score; with GST-Aq-NF-kB, -0.0905 z-score.

Turning to “CCGATTAACATCAGCGCTCGGCCTGATGTTAATCGGGTCTTGATTCGCTTGACGCTGCTG”, the binding signal was 0.343 z-score in the experiment with GST-Ap-NF-kB RHD; 0.0426 z-score in experiment [1]; -0.93 z-score in the experiment with GST-Co-NF-kB; -0.223 z-score in the experiment with GST-Dm-Relish; -0.168 z-score in the experiment with GST-Aq-NF-kB.

In the case of “CCGATTAACATCATTACAAGTTATGATGTTAATCGGGTCTTGATTCGCTTGACGCTGCTG”, the binding signal in the experiment with GST-Ap-NF-kB RHD is -0.849 z-score; in experiment [1] it was -0.456 z-score; with GST-Co-NF-kB, -0.461 z-score; with GST-Dm-Relish, -0.0355 z-score; with GST-Aq-NF-kB, -0.46 z-score.

In the case of “CCGATTAACATCATCTTTTTACTTGATGTTAATCGGGTCTTGATTCGCTTGACGCTGCTG”, the binding signal with GST-Ap-NF-kB RHD was -0.257 z-score; in experiment [1], 0.915 z-score; in the experiment with GST-Co-NF-kB, 0.986 z-score; with GST-Dm-Relish it was 0.859 z-score; in the experiment with GST-Aq-NF-kB it was -0.0105 z-score.

For the sequence “CCGATTAACATCAAGGCAGTCGATGATGTTAATCGGGTCTTGATTCGCTTGACGCTGCTG”, the binding signal in the experiment with GST-Ap-NF-kB RHD was -0.167 z-score; in experiment [1], -0.759 z-score; in the experiment with GST-Co-NF-kB, -0.235 z-score; with GST-Dm-Relish it was -1.07 z-score; with GST-Aq-NF-kB it was -0.454 z-score.

Turning to “CCGATTAACATCAGGTTAGTAGATGATGTTAATCGGGTCTTGATTCGCTTGACGCTGCTG”, the binding signal is -0.19 z-score in the experiment with GST-Ap-NF-kB RHD; -0.558 z-score in experiment [1]; -0.386 z-score with GST-Co-NF-kB; -0.285 z-score with GST-Dm-Relish; -0.208 z-score in the experiment with GST-Aq-NF-kB.

Turning to “CCGATTAACATCAGGCAAGTCCATGATGTTAATCGGGTCTTGATTCGCTTGACGCTGCTG”, the binding signal with GST-Ap-NF-kB RHD was 0.38 z-score; in experiment [1], -0.745 z-score; in the experiment with GST-Co-NF-kB, -0.574 z-score; with GST-Dm-Relish it was -0.151 z-score; with GST-Aq-NF-kB, 0.464 z-score.

With “CCGATTAACATCAAAGTTTAGTATGATGTTAATCGGGTCTTGATTCGCTTGACGCTGCTG”, the binding signal in the experiment with GST-Ap-NF-kB RHD was -0.824 z-score; in experiment [1] it was 0.0213 z-score; with GST-Co-NF-kB, -0.312 z-score; with GST-Dm-Relish, -0.701 z-score; with GST-Aq-NF-kB, -0.693 z-score.

For the sequence “CCGATTAACATCAAGTGCTGAAGTGATGTTAATCGGGTCTTGATTCGCTTGACGCTGCTG”, the binding signal with GST-Ap-NF-kB RHD is 0.257 z-score; in experiment [1], -0.454 z-score; with GST-Co-NF-kB it was 0.247 z-score; with GST-Dm-Relish, -0.417 z-score; with GST-Aq-NF-kB it was -0.518 z-score.

Turning to “CCGATTAACATCACGTTGCAAATTGATGTTAATCGGGTCTTGATTCGCTTGACGCTGCTG”, the binding signal in the experiment with GST-Ap-NF-kB RHD was -0.221 z-score; in experiment [1], -0.531 z-score; in the experiment with GST-Co-NF-kB it was -0.468 z-score; with GST-Dm-Relish, -0.36 z-score; with GST-Aq-NF-kB, -0.15 z-score.

On to “CCGATTAACATCAAAATTTCCGATGATGTTAATCGGGTCTTGATTCGCTTGACGCTGCTG”, for which the binding signal was -0.469 z-score with GST-Ap-NF-kB RHD; 0.233 z-score in experiment [1]; 0.307 z-score with GST-Co-NF-kB; 0.473 z-score with GST-Dm-Relish; 0.933 z-score with GST-Aq-NF-kB.

On to “CCGATTAACATCAGGAATTCTACTGATGTTAATCGGGTCTTGATTCGCTTGACGCTGCTG”, for which the binding signal with GST-Ap-NF-kB RHD was -0.928 z-score; in experiment [1], -0.666 z-score; with GST-Co-NF-kB it was -0.464 z-score; with GST-Dm-Relish it was 0.594 z-score; with GST-Aq-NF-kB it was -0.0775 z-score.

For the origin of these results see article PMC5700166.
